Experiment in all cases: cell count relative to DMSO control; melanoma cells; higher = more viable cells
Test [1] relates to MeWo. The settings on record: library dose: low library concentration; 72 h.
In test [2] the test system is RPMI7951. The following applies: library dose: low library concentration; 72 h.
Test [3] relates to RVH-421. The settings on record: library dose: low library concentration; 72 h.
In test [4] the test system is SkMel28. The settings on record: library dose: low library concentration; 72 h.
Test [5] deals with SkMel30. The settings on record: library dose: low library concentration; 72 h.
Test [6] has as its system SkMel5. The settings on record: library dose: low library concentration; 72 h.
Test [7] concerns UACC257. The settings on record: library dose: low library concentration; 72 h.
The test system of test [8] is UACC62. The following applies: library dose: low library concentration; 72 h.
The subject of test [9] is WM115. The following applies: library dose: low library concentration; 72 h.
The subject of test [10] is WM1716. The following applies: library dose: low library concentration; 72 h.
Test [11] concerns WM1745. The settings on record: library dose: low library concentration; 72 h.
Test [12] deals with WM3526. The following applies: library dose: low library concentration; 72 h.
The subject of test [13] is WM3619. The settings on record: library dose: low library concentration; 72 h.
For test [14], the system named is WM451Lu. The following applies: library dose: low library concentration; 72 h.
The test system of test [15] is 501Mel. The following applies: library dose: standard library concentration; 72 h.
Test [16] relates to A101D. The settings on record: library dose: standard library concentration; 72 h.
The test system of test [17] is A2058. The following applies: library dose: standard library concentration; 72 h.
The subject of test [18] is A375. The following applies: library dose: standard library concentration; 72 h.

Molecules are shown by their SMILES. Some of the results follow. Repeats are few or missing, and single values can be far off.

For `O=C(O)c1ccc2c(c1)nc(Nc1cccc(Cl)c1)c1ccncc12` + Cn1cc(/C=C2\C(=O)Nc3cccnc32)c2ccccc21 [GW441756] (first compound 0.4 µM, partner dose 0.4 µM), the cell count in [1] was 102%; in test [2] it was 103%; in [3], 99.8%; in test [4], 102%; in [5] it was 99.1%; in test [6] it was 82.5%. Also, the cell count was determined as 85.1% in [7]; 89.4% in test [8]; 96.1% in test [9]; 108% in test [10]; 98.7% in test [11]; 114% in [12]. Also, the cell count turned out to be 105% in test [13] and 98.1% in test [14].
In the case of `Cn1nnc2c(C(N)=O)ncn2c1=O` [temozolomide] + COc1ccc(-c2ccc3c(N4CCOCC4)nc(N4C[C@@H](C)O[C@@H](C)C4)nc3n2)cc1CO [KU0063794] (first compound 10 µM, partner dose 0.1 µM), the cell count in test [15] worked out at 73.6%; in test [16], 77.8%; in test [17], 45%; in test [18] it was 83.9%.
`O=C(Nc1ccccc1)c1cc([N+](=O)[O-])ccc1Cl` + N#Cc1c(O)c2c(-c3ccc(-c4ccccc4O)cc3)csc2[nH]c1=O [A769662] (first compound 10 µM, partner dose 10 µM): the cell count amounted to 86.9% in [15], 93.5% in test [16], 112% in test [17] and 160% in test [18].
Turning to `O=C(Nc1ccccc1)c1cc([N+](=O)[O-])ccc1Cl` + O=S(=O)(c1ccccc1)N(CC(F)(F)F)c1ccc(C(O)(C(F)(F)F)C(F)(F)F)cc1 [T0901317] (first compound 2 µM, partner dose 1.4 µM), the cell count in test [1] was 85.2%; in test [2] it was 110%; in test [3], 84.8%; in test [4] it was 82%; in test [5], 91.3%; in [6], 78.4%. Besides, the cell count in test [7] came to 93.7%; in test [8], 83.5%; in test [9], 86.4%; in test [10], 85.3%; in [11] it was 79%; in test [12], 95.7%. Also, the cell count in [13] was 76.7%; in test [14], 97.6%.

Source of the values: the supplement of paper PMC4604168 (melanoma cell lines).
